# Results from PubChem BioAssay AID360 (National Center for Advancing Translational Sciences (NCATS), 2006).
# Out of some 48,000 compounds screened, about 550 (1.1%) were called active. Inconclusive means that the source gave no clear call. Such entries were picked first, then a sample of the others. Cut-off read from the data, not from the text of the source: active = potency below about 15 µM; inconclusive = mostly about 16 µM to 33 µM; inactive = weaker than that. Potencies of inconclusive entries are left out as doubtful fits.
# Biological target: Lysosomal acid glucosylceramidase (Homo sapiens) (UniProt P04062)
# Assay: Glucocerebrosidase;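 note: the screen sought inhibitors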
# Details: purified enzyme, resorufin glucoside fluorescence (screen aimed at inhibitors), 20 min
# Outline: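 Wild-type enzyme at 0.2 nM final in 50mM citric acid/KH2PO4, 10mM sodium taurocholate, 0.01% tween-20, pH 5.9, with resorufin beta-D-glucopyranoside at 30 uM final. Compounds titrated, 20 min at RT, red fluorescence read; AC50 from titration.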
# Potency is the fitted concentration of half-maximal effect.
# UniProt P04062, sequence (P04062 whole entry, looked up): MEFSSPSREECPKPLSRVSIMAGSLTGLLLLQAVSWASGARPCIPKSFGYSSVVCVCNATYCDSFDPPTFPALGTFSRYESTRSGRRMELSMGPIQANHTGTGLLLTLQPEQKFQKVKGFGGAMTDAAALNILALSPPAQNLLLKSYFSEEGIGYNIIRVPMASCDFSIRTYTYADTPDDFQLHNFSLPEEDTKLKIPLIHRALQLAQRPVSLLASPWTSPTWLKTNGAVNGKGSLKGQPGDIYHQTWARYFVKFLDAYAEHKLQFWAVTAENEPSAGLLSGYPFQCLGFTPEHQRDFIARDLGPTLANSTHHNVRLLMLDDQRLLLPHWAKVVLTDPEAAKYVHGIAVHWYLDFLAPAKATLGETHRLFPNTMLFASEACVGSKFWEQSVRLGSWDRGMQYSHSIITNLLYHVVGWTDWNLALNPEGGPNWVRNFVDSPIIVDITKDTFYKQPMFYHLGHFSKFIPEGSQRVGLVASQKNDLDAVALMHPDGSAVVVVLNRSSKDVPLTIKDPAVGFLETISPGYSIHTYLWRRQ
row,Compound,Potency
1,CCOC(=O)CSC1=C(C#N)C(c2ccc(F)cc2)C(C(C)=O)=C(C)N1 (stereo unspecified),inconclusive [decreasing]
2,O=C(Nc1cnn(C23CC4CC(CC(C4)C2)C3)c1)c1cnn2cccnc12,inconclusive [increasing]
3,C=CCN1C(=O)/C(=C2\SC(N3CCOCC3)=NC2=O)c2cc(Br)ccc21,inconclusive [increasing]
4,CCN1CCCC1CN=Cc1c(O)n(-c2ccccc2)c(=O)c2ccccc12 (stereo unspecified),inconclusive [decreasing]
5,C=CCN(C(=O)Nc1ccc(Cl)cc1)C1CC(=O)N(c2ccc(OC)cc2)C1=O (stereo unspecified),inconclusive [decreasing]
6,Cc1cccc(N2CCN(C(=O)n3ccnc3)CC2)c1C,inactive: > 76.9 µM
7,COc1cccc(NC(=O)CSc2nc3n[nH]c(C)c3c(=N)n2-c2cccc(OC)c2)c1,inconclusive [decreasing]
8,Oc1ccccc1NCC(O)Cn1ccc2ccccc21 (stereo unspecified),inconclusive [decreasing]
9,COCCCNC(=O)c1ccc(CNS(=O)(=O)c2ccc(NC(C)=O)cc2)cc1,inconclusive [decreasing]
10,COC(=O)CSc1nc2ccccc2o1,inactive: > 76.9 µM
11,COc1ccc(N2CCN(C(c3cccs3)C(C)NS(=O)(=O)c3ccccc3)CC2)cc1 (stereo unspecified),inconclusive [decreasing]
12,CCOC(=O)c1sc2nc(N3CCCC3)c3c(c2c1N)CC(C)(C)OC3,inconclusive [increasing]
13,CCOC(=O)COc1ccc2c(c1)c(C(=O)OCC)c(C)n2CC,inconclusive [increasing]
14,O=C1Nc2ccccc2C(O)(C(=O)NCc2ccco2)N1c1ccc(Cl)c(Cl)c1 (stereo unspecified),inconclusive [decreasing]
15,CCOC(=O)C1CCN(c2ncnc3c2cnn3-c2ccccc2)CC1,inconclusive [increasing]
16,Nn1c(SCC(=O)NCCC2=CCCCC2)nnc1C1CCCCC1,inactive: > 76.9 µM
17,Cc1cccc(S(=O)(=O)C(C#N)c2nc3ccccc3nc2N2CCCC2)c1 (stereo unspecified),inconclusive [decreasing]
18,COC(=O)c1cnn2c(C(F)(F)F)cc(-c3ccc(F)cc3)nc12,inactive: > 76.9 µM
19,C1=CC2CC1CC2CN1CCN(c2ccccc2)CC1 (stereo unspecified),inconclusive [decreasing]
20,CN(CCC#N)S(=O)(=O)c1ccc2c(c1)c(=O)n(C)c(=O)n2C,inactive: > 76.9 µM
21,CN(CCc1ccccn1)C(=O)Nc1ccc(F)cc1,inconclusive [decreasing]
